Results taken from the supplement of paper PMC3334620.
The full ranking holds about 33,000 sequences; the median of “E-score (-0.5 to 0.5)” is about -0.043, and the highest 2% start at about 0.37. The list shows a part of the results.

Target: T1, Upc2 (UniProt Q12151)
T1 sequence: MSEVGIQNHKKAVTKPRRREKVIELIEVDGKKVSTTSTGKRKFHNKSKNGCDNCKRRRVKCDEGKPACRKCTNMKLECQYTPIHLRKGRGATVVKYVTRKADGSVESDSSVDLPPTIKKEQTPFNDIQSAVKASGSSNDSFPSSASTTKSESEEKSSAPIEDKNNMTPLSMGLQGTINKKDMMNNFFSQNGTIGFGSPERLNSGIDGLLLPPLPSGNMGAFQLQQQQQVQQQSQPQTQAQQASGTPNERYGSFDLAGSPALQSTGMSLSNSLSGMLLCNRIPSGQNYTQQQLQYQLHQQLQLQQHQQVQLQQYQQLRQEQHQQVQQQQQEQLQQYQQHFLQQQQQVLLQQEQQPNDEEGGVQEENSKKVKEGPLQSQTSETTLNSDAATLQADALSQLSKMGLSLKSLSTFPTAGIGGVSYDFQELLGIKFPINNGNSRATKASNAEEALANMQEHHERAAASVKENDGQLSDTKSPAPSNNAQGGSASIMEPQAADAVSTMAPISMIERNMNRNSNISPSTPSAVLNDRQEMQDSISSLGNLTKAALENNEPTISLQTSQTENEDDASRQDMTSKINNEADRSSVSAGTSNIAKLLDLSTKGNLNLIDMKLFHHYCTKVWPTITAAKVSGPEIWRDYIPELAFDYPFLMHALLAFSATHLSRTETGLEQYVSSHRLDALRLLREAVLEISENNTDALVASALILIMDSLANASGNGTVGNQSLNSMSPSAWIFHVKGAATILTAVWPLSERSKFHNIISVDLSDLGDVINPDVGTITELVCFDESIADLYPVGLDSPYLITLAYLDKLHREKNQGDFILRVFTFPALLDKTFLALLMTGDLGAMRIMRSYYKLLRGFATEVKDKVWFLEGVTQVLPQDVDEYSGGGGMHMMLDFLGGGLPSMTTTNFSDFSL
Assay: PBM E-score (8-mer binding enrichment) (E-score (-0.5 to 0.5)); higher = stronger / more preferred TF binding; most listed sequences are background and not binding sites
Conditions: protein concentration: 200 nM; construct: GST-full length
How it was run: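 Using PURExpress in vitro transcription/translation, GST-tagged yeast transcription factors were made in full-length or DNA-binding-domain form. These were applied at about 100-200 nM to double-stranded universal all-10-mer Agilent arrays, and bound protein was detected with fluorescent anti-GST. Scans were normalised with masliner before the Universal PBM Analysis Suite assigned E-scores to ungapped eight-base words pooled with their reverse complements.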

Row | Sequence | PBM E-score
1 | AACCTTCA | -0.114
2 | ATAAATTC | 0.0372
3 | AACAAGGT | -0.18
4 | AAGTCTAC | -0.144
5 | CCGCACTC | 0.195
6 | CGCATATC | 0.187
7 | CAGGCTAC | -0.13
8 | CTGGTCAC | -0.152
9 | GCCCCAGA | -0.09
10 | CCACACCC | -0.0354
11 | CATGATCG | 0.0308
12 | TACTCCCA | -0.129
13 | CAACTCCC | -0.102
14 | CGCTTCGC | 0.209
15 | AAGTTCAC | 0.0547
16 | AGTTCACG | 0.234
17 | CCTGGCGC | -0.125
18 | CCGACAAA | 0.00616
19 | CCGAGAAG | 0.0731
20 | CGCAAGTA | 0.0533
21 | AACCGAAC | 0.227
22 | CCGCTCGA | -0.067
23 | CCTGTCTA | -0.188
24 | CGGTGAGC | 0.0652

Row | Sequence | PBM E-score
25 | ATAGTGTC | 0.0368
26 | ATTCACGG | -0.0319
27 | AGCTAGTG | -0.0672
28 | GTTAAGAA | 0.106
29 | CCTCGTGA | 0.168
30 | AATGGACA | -0.102
31 | GCGGAGAA | -0.0486
32 | TGTTATAA | 0.103
33 | AACCCAAT | -0.154
34 | CAACCCAC | -0.115
35 | CCCTGTAC | 0.154
36 | ATTTCTTG | -0.109
37 | GTAAGCCA | -0.026
38 | CATCATGC | -0.134
39 | AAGCGGAA | 0.0475
40 | GACGCAAC | -0.0716
41 | AAGTCCAT | -0.197
42 | ACAAGGTC | -0.13
43 | ATCCATCC | -0.00885
44 | TCTGAAAA | -0.169
45 | CATATAAA | 0.0469
46 | GAGCCACC | -0.176
47 | ATGCAAAA | -0.00889
48 | CATCACCG | 0.0172

Row | Sequence | PBM E-score
49 | CGGATCTC | 0.0169
50 | CCTCGAAC | 0.0791
51 | CTCTCGGA | 0.0379
52 | GCACTTCA | -0.122
53 | ATATTCTC | -0.0883
54 | CATATGAC | 0.0367
55 | GAGTTACA | -0.0758
56 | CATTATGC | 0.0397
57 | CCCATATA | -0.095
58 | GGGACACA | -0.126
59 | AGTGAAAC | -0.0497
60 | CCCATCCG | 0.192
61 | CGAACCTC | 0.119
62 | ACTGGGCC | -0.245
63 | AACGGTGC | 0.237
64 | CCCAAACC | 0.0006
65 | CAATAATA | -0.0436
66 | AAGTGGAA | -0.0348
67 | CAGCCTTA | -0.156
68 | TCATTCAA | -0.0375
69 | GGAGTGAA | 0.00707
70 | GTGTCGGA | 0.0733
71 | TAGAAGCA | -0.191
72 | AGGTGTTG | -0.0609

Row | Sequence | PBM E-score
73 | ACCGCACC | 0.0201
74 | AACCATAA | -0.0292
75 | AGCACCGC | 0.0434
76 | AGCTGAAG | -0.194
77 | CCCGGCAC | -0.188
78 | CCCAAGTA | -0.0707
79 | CTAGCAGA | -0.156
80 | AATCAAGG | -0.046
81 | CTGAGGGA | -0.138
82 | GCAGTTTA | 0.0629
83 | GTACGCAA | 0.247
84 | ATTTAAAA | -0.0332
85 | GTCAAGAA | 0.0576
86 | ATTGTGAC | -0.129
87 | GGGACCTA | 0.00758
88 | CGCACACG | 0.121
89 | AGAGTCTA | 0.134
90 | GTCTTCTA | -0.128
91 | CGCTTTGC | -0.0514
92 | AGGCGCAT | -0.00045
93 | AGTCACGG | -0.137
94 | CTAATTCC | -0.116
95 | CACACGCC | -0.168
96 | AGGAGGTG | -0.347
